The structures appear in SMILES notation. Hit rate of the full screen: of about 150,000 compounds, about 540 (0.36%) showed an effect of 50% or more. Some of the results follow.

The test system of this test is Plasmodium falciparum. As to the kind of experiment: Primary screen in NF54 nanoGlo assay, in single point, at 2uM, 72h; a lower Z score goes with more inhibition. The note with it: timepoint 72 hour. In kind it is functional, Erythrocyte.
Broadly, the % Inhibition is the relative decrease from the control value, in per cent. `CC(CN1C(=O)[C@H](C)N(C)C1=O)c1nccs1` (stereo partly specified): the “% Inhibition” value is on record as -16% and the Z score came out at 2.47.

As for `O=S(=O)(NC[C@H](O)c1ccc(-c2cccs2)s1)C1CC1`, the “% Inhibition” value worked out at 0% and the Z score is recorded as 0.03.

Take `COc1ccc2ncn(CCCc3ccccn3)c(=O)c2c1`: the “% Inhibition” value is on record as -14% and the Z score worked out at 1.82.

With `CC(C)C[C@H]1CC(=O)Nc2c1c(=O)[nH]n2C1CCCCCC1`, the “% Inhibition” value turned out to be 3% and the Z score is given as -0.44.

For `Clc1cnccc1NCCCN1CCOCC1`, the “% Inhibition” value is recorded as 5% and the Z score was -0.97.

With `C[C@H](NC(=O)c1cncc(F)c1)c1ncnn1C`, the “% Inhibition” value is reported as -2% and the Z score amounted to 0.3.

As to `Cc1nnc(-c2ccc3ccn(CC(=O)Nc4ncccc4C)c3c2)o1`, the “% Inhibition” value is 2% and the Z score is reported as -0.21.

For the molecule `CCCC(C(=O)N(C)C1CCS(=O)(=O)C1)N1CCN(C(=O)OC(C)(C)C)CC1` (stereo unspecified), the “% Inhibition” value is -1% and the Z score was 0.13.

Regarding `O[C@H]1CN(Cc2ncc[nH]2)C[C@@H]1Cc1ccccc1`, the “% Inhibition” value is reported as -14% and the Z score is 2.13.

`O=C(N[C@H]1CCCCNC1=O)c1cc(Cl)c[nH]1`: the “% Inhibition” value stood at 10% and the Z score is -1.8.

Regarding `CCn1cnc2c(N3CCC[C@H](CC(C)(C)C(N)=O)C3)ncnc21`, the “% Inhibition” value stood at 8% and the Z score is -1.51.

Turning to `CCN1C(=O)C2(CCN(C(=O)c3ccoc3)CC2)C[C@H]1C(=O)NC1CCCC1`, the “% Inhibition” value is on record as -9% and the Z score is 1.18.

As for `COCCCN(CCC(=O)NCC(C)C)C(=O)c1ccoc1`, the “% Inhibition” value worked out at 3% and the Z score is reported as -0.67.

Turning to `Cc1nc(C)c(CN2CCN(c3ncccn3)CC2)s1`, the “% Inhibition” value is on record as -9% and the Z score worked out at 1.37.

On to `CC(=O)N1C[C@H](NC(=O)c2[nH]nc(C)c2Cl)[C@@H](C2CC2)C1`, for which the “% Inhibition” value was found to be 9% and the Z score was -1.17.

With `Cc1noc(NS(=O)(=O)c2ccc3c(c2)CCCC3)c1C`, the “% Inhibition” value is on record as -7% and the Z score is recorded as 0.96.

Take `CC1=Nc2ccccc2C12CCN(C(=O)[C@H]1CCC(=O)N1C)CC2`: the “% Inhibition” value is on record as -6% and the Z score is reported as 1.21.

With `COc1cc(C(=O)O[C@H]2CCCN(c3ccnc(N)n3)C2)ccc1C`, the “% Inhibition” value is recorded as -9% and the Z score is 1.09.

As for `COC(=O)C1CC2CCCCC2N1S(=O)(=O)N1CCOCC1` (stereo unspecified), the “% Inhibition” value is -14% and the Z score is listed as 2.21.

Turning to `Cc1ccc(-c2nc3cnccn3c2Nc2ccc3c(c2)OCCO3)o1`, the “% Inhibition” value was -21% and the Z score is listed as 3.21.

As to `Cc1cc(C)c(C(=O)N2CC3CCCC3C2)c(=O)[nH]1` (stereo unspecified), the “% Inhibition” value was found to be 32% and the Z score is recorded as -3.65.

Turning to `Cc1nc(C2(c3ccc(Cl)cc3)CCC2)n(CCCO)n1`, the “% Inhibition” value is -22% and the Z score is 2.84.

In the case of `COc1ccc(C(=O)N2CCc3[nH]c(-c4cn[nH]c4)nc3C2)c(F)c1F`, the “% Inhibition” value is given as 0% and the Z score is 0.04.

`Cc1ccc2c(c1)N(C)C(=O)c1cc(NC(=O)c3c(F)cccc3F)ccc1O2`: the “% Inhibition” value was -23% and the Z score was 2.68.

On to `Cc1ccc(NC(=O)[C@@H]2CC(=O)N=C(N3CCOCC3)N2)cc1Cl`, for which the “% Inhibition” value amounted to 37% and the Z score is listed as -0.83.

With `CC(C)CN(C(=O)c1ocnc1C(F)F)[C@@H](C)c1ccccc1Cl`, the “% Inhibition” value is on record as -9% and the Z score turned out to be 1.35.

For the molecule `COc1ccccc1Oc1c[nH]nc1-c1ccc(OCc2ccccc2)cc1O`, the “% Inhibition” value is listed as -17% and the Z score stood at 2.49.

Take `CCc1cccc2sc(NC[C@H]3CCCO3)nc12`: the “% Inhibition” value worked out at 12% and the Z score is on record as -1.49.

Turning to `CCOc1ccccc1COC(=O)c1ccnc(C)n1`, the “% Inhibition” value was -10% and the Z score amounted to 1.08.

For `COc1cc(C2CN(C(=O)c3cccc(Cl)c3)CC2C(=O)N2CCCCC2)cc(OC)c1OC` (stereo unspecified), the “% Inhibition” value is given as -8% and the Z score is listed as 1.31.

With `CCCc1noc(C(C)NCC2CCOC2c2cnn(C)c2)n1` (stereo unspecified), the “% Inhibition” value is listed as -15% and the Z score amounted to 1.25.

For the molecule `CCN(C(=O)c1cc(C)c(C)[nH]c1=O)[C@H]1COC[C@@H]1O`, the “% Inhibition” value is -3% and the Z score is listed as 0.54.

With `Cc1n[nH]c(C)c1NC(=O)N1CCC[C@]1(C)Cc1cccc(F)c1`, the “% Inhibition” value was -4% and the Z score is 0.48.

Take `C[C@H]1C(=O)N(c2ccc(-c3ccccc3)cc2)CCN1Cc1ccc(F)cc1F`: the “% Inhibition” value was -4% and the Z score stood at 0.46.

Turning to `O=S(=O)(c1ccc(-c2csc(N3N=C(c4ccccc4)C[C@H]3c3ccccc3)n2)cc1)N1CCCC1`, the “% Inhibition” value is recorded as -7% and the Z score is 1.28.

Take `O=C(NCCc1noc2ccccc12)c1cnn(C2CC2)c1`: the “% Inhibition” value is recorded as 3% and the Z score is -0.65.

For `CO[C@H]1CCCN(S(=O)(=O)CC2CN(C(=O)OC(C)(C)C)C2)C1`, the “% Inhibition” value came out at 9% and the Z score is recorded as -1.01.

Regarding `COc1ccc(-n2nc3nc(NCC(C)C)nc(-c4cccc(F)c4)c3c2N)cc1`, the “% Inhibition” value was -10% and the Z score is recorded as 1.3.

Turning to `CC(C)CN(CC(=O)N1CCOCC1)c1cccc(O)c1`, the “% Inhibition” value turned out to be 4% and the Z score is -0.59.

On to `O=C(Nc1ccc2c(c1)cc(C(=O)NCc1ccco1)n2Cc1ccc(F)cc1)c1ccco1`, for which the “% Inhibition” value was -12% and the Z score is given as 2.19.

Turning to `Cn1cc(C2C[S+]([O-])CCN2CC(=O)Nc2ccc(Cl)cn2)cn1` (stereo unspecified), the “% Inhibition” value is -5% and the Z score worked out at 0.55.

Turning to `CCOc1ccc(C(=O)N2Cc3cnc(CC(C)C)nc3C2)cc1OCC`, the “% Inhibition” value is recorded as 1% and the Z score was -0.16.

As for `Cc1noc2nc(C3CC3)cc(-c3nc(-c4ccncc4)no3)c12`, the “% Inhibition” value is 16% and the Z score is -2.22.

For the origin of these results see ChEMBL document CHEMBL4888484, “Replenishing the malaria drug discovery pipeline: Screening and hit evaluation of the MMV Hit Generation Library 1 (HGL1) against asexual blood stage Plasmodium falciparum ,using a nano luciferase reporter read-out” (2022).
